The record followed here is article PMC6707248.

Chains of the proteins cited; added tags and fusions are not shown. Lines headed by an entry give the natural chain unless they say otherwise; changes in a name come on top.
UniProt P06748: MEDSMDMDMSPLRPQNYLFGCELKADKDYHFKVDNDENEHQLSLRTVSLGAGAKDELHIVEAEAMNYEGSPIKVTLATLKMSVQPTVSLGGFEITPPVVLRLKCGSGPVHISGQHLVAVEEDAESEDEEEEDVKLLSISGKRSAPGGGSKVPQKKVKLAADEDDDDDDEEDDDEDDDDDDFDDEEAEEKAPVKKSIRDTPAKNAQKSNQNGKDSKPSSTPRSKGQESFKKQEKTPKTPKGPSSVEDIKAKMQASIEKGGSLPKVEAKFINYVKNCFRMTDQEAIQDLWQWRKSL
UniProt Q9H4L4: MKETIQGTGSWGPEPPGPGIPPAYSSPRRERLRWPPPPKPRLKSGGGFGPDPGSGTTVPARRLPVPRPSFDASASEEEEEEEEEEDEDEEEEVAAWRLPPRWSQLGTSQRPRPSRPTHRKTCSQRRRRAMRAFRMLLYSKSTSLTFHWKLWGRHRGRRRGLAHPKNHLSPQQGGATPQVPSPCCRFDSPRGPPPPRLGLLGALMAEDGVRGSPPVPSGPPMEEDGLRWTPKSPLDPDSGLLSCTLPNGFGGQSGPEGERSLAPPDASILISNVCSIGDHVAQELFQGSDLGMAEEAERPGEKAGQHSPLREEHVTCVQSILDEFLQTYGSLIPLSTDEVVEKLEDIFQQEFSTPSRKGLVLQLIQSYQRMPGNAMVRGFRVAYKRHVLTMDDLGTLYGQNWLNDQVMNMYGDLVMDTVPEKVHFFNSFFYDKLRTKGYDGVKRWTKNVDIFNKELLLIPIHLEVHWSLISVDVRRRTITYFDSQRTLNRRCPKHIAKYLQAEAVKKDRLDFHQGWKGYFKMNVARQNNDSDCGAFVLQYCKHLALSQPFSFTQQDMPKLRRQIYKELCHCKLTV
UniProt Q9Y3D8: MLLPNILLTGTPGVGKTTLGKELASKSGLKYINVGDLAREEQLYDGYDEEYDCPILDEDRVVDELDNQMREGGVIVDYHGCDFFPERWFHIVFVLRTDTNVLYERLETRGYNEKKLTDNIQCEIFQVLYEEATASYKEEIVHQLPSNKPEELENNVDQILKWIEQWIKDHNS
UniProt Q06609: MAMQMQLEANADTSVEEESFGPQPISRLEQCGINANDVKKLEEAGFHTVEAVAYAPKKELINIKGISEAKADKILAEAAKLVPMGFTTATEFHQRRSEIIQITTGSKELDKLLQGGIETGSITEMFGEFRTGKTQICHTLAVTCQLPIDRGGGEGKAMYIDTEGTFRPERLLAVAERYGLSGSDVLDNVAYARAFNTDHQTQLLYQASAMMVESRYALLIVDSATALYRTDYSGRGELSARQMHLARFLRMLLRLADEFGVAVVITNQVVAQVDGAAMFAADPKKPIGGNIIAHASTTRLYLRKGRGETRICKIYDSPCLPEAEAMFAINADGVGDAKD

One assay deals with HA-NPM1 WT (UniProt P06748). The assay is described as follows: co-IP; HEK293T expressing Flag-hCINAP and HA-NPM1 WT or NPM1 truncated mutants.
Another assay has as its target Myc-SENP3 (human) (UniProt Q9H4L4). The assay is described as follows: co-IP; HEK293T transfected with Myc-SENP3 and Flag-hCINAP for 48 h; immunoprecipitated with anti-Myc antibody.
Assay [1] deals with SENP3 in spleen sections of AML PDX mice (not stated (spleen of NOD/SCID mice carrying human AML cells)) (UniProt Q9H4L4). The experiment in a line: proximity ligation; PLA staining of spleen sections of AML PDX mice, control shRNA or hCINAP shRNA.
The target in assay [2] is SENP3 of the NPM1 co-IPs of Fig. 3i, j (human) (UniProt Q9H4L4). The experiment in a line: co-IP; HEK293T and hCINAP-/- HEK293T transfected with the indicated plasmids, with or without hCINAP.
A further assay deals with Flag-NPM1 K263R (UniProt P06748). The assay is described as follows: co-IP; HEK293T transfected with the indicated vectors, indicated antibodies (Fig. 5j).
The target of another assay is Flag-NPM1 WT (UniProt P06748). The assay is described as above.
A further assay addresses T1, Flag-RAP80 ΔSIM (UniProt Q96RL1).
T1 sequence: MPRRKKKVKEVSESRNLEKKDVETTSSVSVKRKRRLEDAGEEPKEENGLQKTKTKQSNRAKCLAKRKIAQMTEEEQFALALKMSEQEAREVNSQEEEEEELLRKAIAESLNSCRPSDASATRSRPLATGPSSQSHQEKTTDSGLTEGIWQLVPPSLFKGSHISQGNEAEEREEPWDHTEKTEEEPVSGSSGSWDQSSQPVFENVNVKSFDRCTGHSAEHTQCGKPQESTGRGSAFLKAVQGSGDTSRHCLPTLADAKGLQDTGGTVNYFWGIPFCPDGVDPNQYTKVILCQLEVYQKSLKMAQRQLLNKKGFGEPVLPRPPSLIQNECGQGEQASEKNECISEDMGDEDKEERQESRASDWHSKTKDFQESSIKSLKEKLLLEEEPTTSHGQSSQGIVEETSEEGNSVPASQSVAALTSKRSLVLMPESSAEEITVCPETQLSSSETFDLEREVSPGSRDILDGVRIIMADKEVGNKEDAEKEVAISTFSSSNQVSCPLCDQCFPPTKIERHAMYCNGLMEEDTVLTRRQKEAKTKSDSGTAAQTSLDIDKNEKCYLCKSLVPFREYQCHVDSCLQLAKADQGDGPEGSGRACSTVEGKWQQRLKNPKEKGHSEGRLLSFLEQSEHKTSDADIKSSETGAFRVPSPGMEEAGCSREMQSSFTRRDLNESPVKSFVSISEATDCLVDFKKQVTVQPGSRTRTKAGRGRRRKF
The assay is described as follows: co-IP; HEK293T transfected with Flag-RAP80 FL or ΔSIM, with or without IR; anti-NPM1 and anti-Flag antibodies.

Assay [3] has as its target endogenous NPM1 (nucleophosmin) (human (endogenous in HEK293T, OCI-AML2)) (UniProt P06748). The experiment in a line: co-IP; endogenous proteins, NPM1 WT OCI-AML2 cell line (Supplementary Fig. 2a).
Assay [4] deals with endogenous SENP3 (human (endogenous in OCI-AML2, OCI-AML3)) (UniProt Q9H4L4). The description is as above.
For assay [5] the target is unchanged. The experiment in a line: co-IP; endogenous proteins, NPM1 mutant OCI-AML3 cell line (Supplementary Fig. 2b).
For assay [6], the target named is endogenous NPM1 (nucleophosmin) (human (endogenous in HEK293T, OCI-AML2)) (UniProt P06748). The assay is described as follows: co-IP; endogenous proteins, HEK293T whole-cell lysates, immunoprecipitated with an antibody against NPM1.

No constants are given. Whether binding was seen depends on the method and setting. Binding seen in cells or lysates may run through a third protein. Some results given as binding are weak or reduced against the parent protein; the word gives no strength. For some assays here: Sequences can lack the tags named with a protein.

Consider “Flag-hCINAP (human coilin-interacting nuclear ATPase protein) (from UniProt Q9Y3D8 1-172)”, for which the binding entry with HA-NPM1 WT and with Myc-SENP3 (human) was “binds” throughout.

For “NPM1 in spleen sections of AML PDX mice (from UniProt P06748 1-294)”, the binding entry in assay [1] is “binds”.

“NPM1 of the SENP3 co-IPs of Fig. 3i, j (from UniProt P06748 1-294)”: in assay [2], the binding entry is given as “binds”.

RAD51 (from UniProt Q06609 1-339): the binding result with Flag-NPM1 K263R is reported as “no binding”; in the assay with Flag-NPM1 WT it was “binds”.

Regarding “endogenous NPM1 (nucleophosmin) (from UniProt P06748 1-294)”, in the assay with Flag-RAP80 ΔSIM, the binding result is “no binding”.

As for “endogenous hCINAP (from UniProt Q9Y3D8 1-172)”, the binding entry in assay [3], in assay [4], in [5] and in assay [6] was “binds” throughout.
